According to PubChem BioAssay AID1347073 (National Center for Advancing Translational Sciences (NCATS), 2019):
Hit rate of the full screen: of about 45,000 compounds, about 200 (0.44%) were called active. Inconclusive results (about 7%) are left out. The call rests on the fitted dose curve; in most records, active means well fitted activation curve with a large enough effect; inconclusive means small, poorly fitted or top-dose-only effect; inactive means no such curve, though single readings can be large or run the other way. This is one part of the list.

Assay: qHTS of TDP-43 Inhibitors: NCGC Sytravon Library Screen; further: 0% is about no effect; nearly all actives have a fitted effect of over 55% in size
Conditions: yeast TDP-43 toxicity rescue, BacTiter-Glo growth, 24 h; series mostly up to 46.1 µM; growth rescue (activation): at the top concentration
In short: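 TDP-43-expressing yeast, pregrown in raffinose, seeded at OD600 0.02 in galactose medium with compound for 24 hr at 30 deg C. Growth read by BacTiter-Glo luminescence, so rescue of toxicity appears as activation.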

| SMILES | growth rescue (activation) |
| --- | --- |
| O=C(NCCCN1CCCCCC1)c1cc2c(=O)oc3ccccc3c2s1 | inactive: -6.92% |
| C[C@]12CC[C@H](O)CC1=CCC1C2CC[C@@]2(C)C1CC[C@@H]2NC(=O)[C@@H](N)CO (stereo partly drawn) | inactive: 1.59% |
| COCc1c(C(=O)N(C)Cc2ccccc2N2CCCC2)oc2ccccc12 | inactive: 17.7% |
| COc1cc(-c2cc(C(=O)Nc3cccc(S(=O)(=O)N(C)C)c3)c3ccccc3n2)cc(OC)c1OC | inactive: 7.25% |
| O=C1C/C(=C\c2c(F)cccc2Cl)N2CCC1CC2 | inactive: -3.45% |
| COc1ccc(Br)cc1-c1nc2c(c(=O)[nH]c(=O)n2Cc2ccccc2)n1C | inactive: 20.2% |
| Cc1ccc(CN(C)c2ccc(S(=O)(=O)N3CCCC3)cn2)cc1 | inactive: 1.72% |
| CCOC(=O)C1C(=O)NC(c2ccccc2)=NC1c1ccc(OC)cc1 (stereo not drawn) | inactive: -0.733% |
| CCOC(=O)c1cc(CC)sc1N1C(=O)CC(Sc2ccccc2C(=O)O)C1=O (stereo not drawn) | inactive: -3.56% |
| Cc1ccc(NC(=O)c2n[nH]c(=O)c3ccccc23)cc1S(=O)(=O)N1CCOCC1 | inactive: 13.7% |
| COc1ccc(NC(=O)CSc2nnc(NC(=O)CN3CCOCC3)s2)cc1 | inactive: 3.58% |
| Cc1ccc(OCC(=O)NNC(=O)C(=O)NC(C)(C)C)cc1 | inactive: -6.33% |
| Cn1cc(C(=O)N/N=C/c2cccc(O)c2)ccc1=O | inactive: -5.26% |
| Cc1cc2cc(CN(Cc3cccs3)C(=S)NCc3ccco3)c(=O)[nH]c2cc1C | inactive: -7.38% |
| OC[C@@H]1CN(CCN2CCOCC2)C[C@H](n2cnc3c(NCc4ccc(F)cc4)ncnc32)O1 | inactive: -6.52% |
| Cn1c(=O)cc(SCC(=O)N2CCCC2)c2ccccc21 | inactive: 23.7% |
| O=C(COc1ccc(/C=N/NS(=O)(=O)c2ccccc2)cc1)NCc1ccccc1 | inactive: 17.2% |
| CN1CCC(OC(=O)c2ccccc2Cl)CC1 | inactive: -6.93% |
| Cc1ccc(N(C(=O)CNC(=O)c2ccco2)C(C(=O)NC2CCCCC2)c2ccncc2)c(C)c1 (stereo not drawn) | inactive: 9.28% |
| Cc1ccc(C(=O)COC(=O)c2nc(Cl)ccc2Cl)cc1 | inactive: 40.6% |
| O=C(O)c1cccc(S(=O)(=O)Nc2ccc(-c3ccccc3)cc2)c1 | inactive: 20.1% |
| CSc1nsc(SC)c1C(=O)O | inactive: -6.56% |
| COC(=O)c1ccc(NC(=O)c2ccc3nccnc3c2)cc1 | inactive: 1.62% |
| Cc1cccnc1CCNC(=O)CCc1nnc(CCc2ccccc2)o1 | inactive: 11.2% |
| CSc1ccc(C(=O)C2CCCN(C(=O)c3cc4cc(F)ccc4[nH]3)C2)cc1 (stereo not drawn) | inactive: -4.19% |
| O=C(Nc1ccccc1Br)c1cc[n+]([O-])cc1 | inactive: 9.81% |

| SMILES | growth rescue (activation) |
| --- | --- |
| Cc1noc(C)c1COc1ccc(C(=O)N2CCN(S(=O)(=O)c3cccc(F)c3)CC2)cc1 | inactive: -4.22% |
| CCNC(=O)NC(=O)CSc1nnc(-c2c[nH]c3ccccc23)o1 | inactive: -18.9% |
| Nc1cc(-c2ccco2)no1 | inactive: 17.4% |
| O=C(CN(Cc1ccco1)C(=O)c1ccc(Cl)cc1)Nc1ccc(Cl)c(Cl)c1 | inactive: 6.44% |
| Cc1nc(CC(=O)NNS(=O)(=O)c2ccc3ccccc3c2)cs1 | inactive: 12.1% |
| NS(=O)(=O)c1cc(C(=O)NNC(=O)c2ccc3c(c2)OCO3)ccc1Cl | inactive: 11.7% |
| Cc1ccccc1COc1ccc(-c2nnn(CC(=O)O)n2)cc1 | inactive: 4.11% |
| COc1ccc2nc(/N=C/c3cccc(OC)c3O)sc2c1 | inactive: -16.7% |
| O=C(C[n+]1ccc(-c2cc(C(=O)Nc3cccc(C(F)(F)F)c3)c3ccccc3n2)cc1)c1cccc([N+](=O)[O-])c1 | inactive: 4.51% |
| CCOc1ccc(NCc2cccn2-c2nnc(N3CCC(C(=O)NCC(C)c4ccccc4)CC3)s2)cc1 (stereo not drawn) | inactive: 7.87% |
| COc1cc(C)ccc1OC(C)C(=O)Nc1ccc(N2CCCCC2)cc1 (stereo not drawn) | inactive: 26.1% |
| O=C(CCC(=O)N1CCN(c2ccc(F)cc2)CC1)c1ccc(F)cc1 | inactive: 9.81% |
| Cc1ccc(S(=O)(=O)NC(=O)C2(C)CCN2C(=O)Cc2ccc(-c3ccccc3)cc2)nc1 (stereo not drawn) | inactive: 3.53% |
| CCOc1ccc(/C=C2\SC(=S)N(CCC(=O)Nc3ccccc3C(=O)O)C2=O)cc1 | inactive: 7.36% |
| O=C(O)C1CCCN1C(=O)C1CCN(S(=O)(=O)c2cccc(C(F)(F)F)c2)CC1 (stereo not drawn) | inactive: 24.5% |
| Cc1cc(OCCCCCn2ccnc2)cc(C)c1Cl | inactive: 10.5% |
| COc1c(C)cc(C(O)c2ncc(-c3cccc(F)c3)[nH]2)cc1C (stereo not drawn) | inactive: 2.33% |
| COc1ccccc1C(=O)C1CCCN(Cc2ccc3c(c2)OCCO3)C1 (stereo not drawn) | inactive: 29% |
| CC(C)(C)NS(=O)(=O)c1ccc2nc(NC(=O)c3ccc(N4C(=O)CCC4=O)cc3)sc2c1 | inactive: 5.11% |
| O=C(O)CC(Cc1ccc(Cl)cc1)C(=O)NCc1ccccc1 (stereo not drawn) | inactive: 9.25% |
| CCn1c(SCC(=O)NC2CCCCC2)nnc1-c1cccnc1 | inactive: 11.4% |
| O=[N+]([O-])c1ccc(-c2nnc3cccc(Cl)n23)cc1 | inactive: 7.44% |
| COc1ccc(NS(=O)(=O)c2cc(NC(=O)c3ccc(Cl)cc3)ccc2N2CCOCC2)cc1 | inactive: 14.9% |
| Cc1nc(N)sc1N=Nc1c(C)n(C)n(-c2ccccc2)c1=O | inactive: 7.43% |
| COc1cccc(-c2nc(Oc3cccc(C)c3C)c3ccccc3n2)c1O | inactive: 11.3% |
| Cn1nc(C(C)(C)C)cc1C(=O)N1CCCC(c2cc(C(=O)NCc3ccccc3)no2)C1 (stereo not drawn) | inactive: 8.12% |

| SMILES | growth rescue (activation) |
| --- | --- |
| CN(C)c1ccc(CN(Cc2ccco2)C(=O)c2ccc(C(C)(C)C)cc2)cc1 | inactive: 14.4% |
| CC1CC(C)CN(CCCNC(=O)c2cn(C)c3ccc(S(=O)(=O)N4CCCC4)cc3c2=O)C1 (stereo not drawn) | inactive: 3.96% |
| O=C(Nc1ccc(F)cc1)N(CCCN1CCOCC1)Cc1cc2cc3c(cc2[nH]c1=O)OCCO3 | inactive: -11.8% |
| CCCOc1ccc(C(=O)Nc2ccc3oc(-c4ccncc4)nc3c2)cc1 | inactive: 15.7% |
| CC1CCN(CC(=O)Nc2sc3c(c2C#N)CCC3)CC1 | inactive: -2.25% |
| CC(OC(=O)C1=COCCO1)C(=O)NC1(C#N)CCCCC1 (stereo not drawn) | inactive: -4.5% |
| CN(CC(=O)NCCCN1CCOCC1)S(=O)(=O)c1ccc(Br)cc1 | inactive: 14.7% |
| Cc1ccc(C)c(S(=O)(=O)Nc2ccc(-n3cnnn3)cc2)c1 | inactive: 11% |
| Cc1cc2c(=O)n(C)c(SCC(=O)Nc3cccc(F)c3)nc2s1 | inactive: -21.6% |
| O=Cc1cc([N+](=O)[O-])ccc1N1CCN(Cc2ccc3c(c2)OCO3)CC1 | inactive: -10.2% |
| COc1ccc(OCCN2CCN(S(=O)(=O)c3ccccc3C#N)CC2)cc1 | inactive: -6.86% |
| Cc1ccc(N(C(=O)c2csnn2)C(C(=O)NC2CCCC2)c2cccnc2)c(C)c1 (stereo not drawn) | inactive: -14.5% |
| O=C(CCCOc1ccccc1)Nc1ncccn1 | inactive: -15% |
| COc1ccc(/C=C/C(=O)NC(=S)NNC(=O)c2cccs2)cc1 | inactive: 16.5% |
| O=C(c1ccco1)N1CCCC(c2nc3c(nnn3Cc3ccc(F)cc3)c(=O)[nH]2)C1 (stereo not drawn) | inactive: 5.12% |
| CCCNC(=O)CN1C(=O)NC(CC)(c2ccc(F)cc2)C1=O (stereo not drawn) | inactive: -2.72% |
| CCOC(=O)/C=C1/SCC(=O)N1CC(=O)NC12CC3CC(CC(C3)C1)C2 | inactive: -6.98% |
| COc1ccc(S(=O)(=O)Nc2nc3c(s2)C(=O)CC(C)(C)C3)cc1 | inactive: -26.1% |
| OC(c1cccc(F)c1)c1ncc(-c2ccc(C(F)(F)F)cc2)[nH]1 (stereo not drawn) | inactive: 4.15% |
| CC(C)CNC(=O)[C@H](Cc1ccccc1)NC(=O)c1cccs1 | inactive: 16% |
| CCc1ccc(N2CC(C(=O)OCC(=O)NC3CC3)CC2=O)cc1 (stereo not drawn) | inactive: -5.09% |
| CC(C)c1cc(CN2CCN(Cc3ccc(F)c(F)c3)C(CCO)C2)[nH]n1 (stereo not drawn) | inactive: 3.49% |
| O=C(CCNC(=O)c1ccco1)Nc1nc2ccccc2s1 | inactive: 0.531% |
| CCCCN1CC(O)=C(c2nc3ccccc3[nH]2)C1=N | inactive: 18.2% |
| CCOC(=O)N1CCN(C(=O)c2cc(COc3ccc4ncccc4c3)on2)CC1 | inactive: 1.21% |
| O=C(COC(=O)c1ccc(Br)o1)Nc1ncc(Cl)cc1Cl | inactive: 11.6% |

| SMILES | growth rescue (activation) |
| --- | --- |
| COC(=O)c1cnc(NC(=O)C2(C)CCN2C(=O)C(C)C)s1 (stereo not drawn) | inactive: 11.6% |
| CN(CC(=O)Nc1cccc(F)c1)CC(=O)Nc1ccccc1-c1ccccc1 | inactive: 16.8% |
| COc1ccccc1NC(=O)NC(=O)c1ccccc1 | inactive: 11.8% |
| CCOc1cc(/C=C(\C#N)C(=O)Nc2cccc(C(=O)O)c2)ccc1OCc1ccc(Br)cc1 | inactive: -0.944% |
| COc1ccc(C=NNc2ccc([N+](=O)[O-])cc2S(=O)(=O)Nc2ccccc2C(=O)O)cc1OC | inactive: 16.2% |
| COc1cccc(/C=N/Nc2ccnc(=O)[nH]2)c1O | inactive: 21% |
| CCOc1cc(/C=C2\SC(=S)N(NC(=O)c3cccnc3)C2=O)ccc1O | inactive: -21.5% |
| Cn1nccc1C(=O)OCC(=O)Nc1ccccc1Cl | inactive: 10.2% |
| O=C(NCC1CCCO1)c1ccc2c(c1)C(=O)N(c1cccc([N+](=O)[O-])c1)C2=O (stereo not drawn) | inactive: 0.0745% |
| Cc1ccc(C)c(NC(=O)/C(C#N)=C/c2cn(CC(=O)NCc3ccco3)c3ccccc23)c1 | inactive: 22.2% |
| CCCCn1nc(NC(=O)c2cccc(Cl)c2)c2cc3cccc(C)c3nc21 | inactive: 5.05% |
| COc1ccc(C(=O)Nc2ccc(Oc3ncnc4sc(-c5ccccc5)cc34)cc2)cc1OC | inactive: 9.86% |
| COc1ccc(OC)c(NC(=O)c2cc(-c3cc(F)ccc3OCC3CCCO3)n[nH]2)c1 (stereo not drawn) | inactive: 29.1% |
| COc1ccc2[nH]c(=O)c(CN(Cc3cccs3)C(=S)Nc3cccc(C)c3)cc2c1 | inactive: -12.5% |
| COCc1c(C(=O)N2CCN(Cc3ccc(C#N)cc3)CC2)oc2ccccc12 | inactive: 3.07% |
| CNC(=O)C1CC(=O)N(c2ccc(OCC(=O)Nc3ccccc3C)cc2)C1 (stereo not drawn) | inactive: 25.4% |
| O=C(Nc1ccccc1NC(=O)c1ccccc1F)c1ccccc1F | inactive: -6.73% |
| O=C(CNCC1CCCCC1)Nc1ccc(OC(F)(F)F)cc1 | inactive: -7.79% |
| CCCC(c1nnnn1CS(=O)(=O)c1ccc(C)cc1)N1CCC(C(N)=O)CC1 (stereo not drawn) | inactive: -28.6% |
| COc1ccc2nc(SCC(=O)NCc3ccc(S(N)(=O)=O)cc3)[nH]c2c1 | inactive: -16.3% |
| CCOC(=O)c1cccc(NC(=O)/C=C/c2ccc3c(c2)OCO3)c1 | inactive: 4.13% |
| CC(=O)Nc1ccc(-c2ccnc3c2CC(C(=O)Nc2cccc(N(C)C)c2)O3)cc1 (stereo not drawn) | inactive: -5.24% |
| CC(C)(C)c1ccc(/C=C2\Oc3cc(OC(=O)N4CCOCC4)ccc3C2=O)cc1 | inactive: 19.6% |
| COc1ccc(Nc2nc(C(=O)N(CCO)Cc3ccccc3)cs2)cc1 | inactive: -1.27% |
| Cc1ccc(CN2CCN(Cc3ccc(-n4cccn4)cc3C)CC2CCO)cc1 (stereo not drawn) | inactive: -11.2% |
